Experimental data: PubChem BioAssay AID1347417 (National Center for Advancing Translational Sciences (NCATS), 2020)
About 5,300 (4.4%) of roughly 120,000 compounds were called active. This list was built around the results that the source calls inconclusive (neither active nor inactive); the mix of calls is not that of the screen. Calls follow the shape of the dose curve; as a rule, active = well fitted inhibition curve with a large enough effect; inconclusive = small, poorly fitted or top-dose-only effect; inactive = no such curve, though single readings can be large or run the other way. Potencies of inconclusive entries are doubtful fits and often do not repeat.

Experiment: qHTS Primary assay for Inhibitors of Plasmodium falciparum Dd2 growth in vitro; also: nearly all actives have a fitted effect of over 65% in size;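 as to activity, negative = inhibition: plate controls were DMSO vehicle for no effect and reference drug for full effect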
Details: P. falciparum Dd2 growth, SYBR Green, 72 h; activity, negative = inhibition: at 28.9 µM (top of the series) unless noted; series mostly up to 28.9 µM
In short: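 Infected erythrocytes (Dd2, 0.3% parasitemia, 2.5% hematocrit final) are added to compound in RPMI-1640/Albumax II medium, grown 72 h at 37C in low oxygen, then lysed with saponin/Triton-X containing SYBR Green and read by fluorescence.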
Potency is read from the fitted curve at half-maximal effect; tags tell the direction and shape of the fitted curve.

SMILES	Potency	outcome	activity, negative = inhibition
CCn1ccc2cc(S(=O)(=O)N3CCCN(C(=O)NCC(=O)OC)CC3)ccc21	inactive	–	–
O=C(c1ccc(F)cc1)N1CCN(c2nnc3ccccn23)CC1	inactive	–	–
COc1cc2c(cc1OCc1ccccc1)NC(=O)C21CCN(CC2CC2)CC1	inconclusive: 2.24 µM [inhibitor, full curve, poor fit]	–	–
O=C1CN(C(=O)c2ccc(S(=O)(=O)N3CCCCC3)cc2)C(c2ccc(F)cc2)c2cc(Br)ccc2N1 (centres undefined)	inconclusive: 1 µM [inhibitor, single point]	–	–
CN1CCC(C(=O)NCc2c[nH]c3ncccc23)CC1	inactive	–	–
O=C(c1ccc(Cl)nc1)N1CCC(c2nn(Cc3ccccc3)c(=O)[nH]2)CC1	inactive	–	–
Cc1ccc(NC(=O)N2CCC(CCNC(=O)CCC3CCCC3)CC2)cc1	inactive	–	–
Cc1ccc(S(=O)(=O)c2nnn3c2nc(N2CCOCC2)c2ccccc23)cc1C	inconclusive: 4.47 µM [inhibitor, partial curve, poor fit]	–	–
CC(C)c1nc2c(c(-c3ccc(O)cc3)n1)CN(CC1CCCCC1)CC2	active: 3.55 µM	–	–
CN(CC1CCOC1)C(=O)Nc1ccc(F)cc1 (centres undefined)	–	inactive [at 5.79 µM]	–
COC[C@H]1CCCN1[C@@H]1[C@H](O)[C@H](CO)O[C@@H]1CNCc1cccc(Cl)c1	inconclusive: 10 µM [inhibitor, partial curve, poor fit]	–	–
COc1ccc(NC(=O)c2cc(S(=O)(=O)NCCC3=CCCCC3)ccc2F)cc1	inconclusive: 11.2 µM [inhibitor, single point]	–	–
CCc1ccc(NC(=O)C2CCN(S(=O)(=O)c3c(C)noc3/C=C/c3ccco3)CC2)cc1	inconclusive: 7.94 µM [inhibitor, partial curve, poor fit]	–	–
CC(C)CC(NC(=O)c1cnc2ccccc2c1)c1nnc2n1CCNCC2 (centres undefined)	inactive	–	–
CCOC(=O)C1CCN(C(=O)c2ccc3c(c2)sc2nc(-c4ccc(C)cc4)cn23)CC1	inconclusive: 7.08 µM [inhibitor, partial curve]	–	–
COc1cc(-c2cc(C)c3cccc(OC)c3n2)cc2c1OCCN(C(=O)CCN)C2	inconclusive: 12.6 µM [inhibitor, single point]	–	–
COCc1nc(C2CCN(C(=O)c3n[nH]c4ccccc34)C2)no1 (centres undefined)	inconclusive: 17.8 µM [inhibitor, single point]	–	–
O=C(Nc1cccnc1)c1ccc2c(c1)OCCN(c1cccc(OC(F)(F)F)c1)C2	inconclusive: 14.1 µM [inhibitor, partial curve, poor fit]	–	–
Cn1ccc2c(OCC(=O)Nc3ccc([N+](=O)[O-])cc3)cccc2c1=O	–	–	inconclusive: -38% [inhibitor] [at 5.79 µM]
CN(C)[C@@H]1C[C@H](Cn2cc(-c3cccnc3)nn2)[C@@H](O)[C@H]1O	inactive	–	–
Cc1nc(C2(C)CCN(S(=O)(=O)c3c(C)noc3C)CC2)no1	inactive	–	–
CC(=O)N[C@@H]1CCC[C@@H](C(=O)NCc2cc(C)on2)CC(=O)N(C)C1	inactive	–	–

SMILES	Potency	outcome	activity, negative = inhibition
O=C(Nc1ccccc1)N1[C@H]2CC[C@@H]1c1cncnc1C2	inactive	–	–
CN(C)c1ccc(CN2CCC3(CC2)C(=NC2CCCCC2)NC(=O)N3c2cccnc2)cc1	inactive	–	–
CCc1c(C(=O)N2CCCN(C)C3(CCN(C)CC3)C2)csc1C	inconclusive: 12.6 µM [inhibitor, single point]	–	–
COc1ccccc1CNC(=O)c1ccc2c(c1)CC(=O)N2Cc1ccc(F)cc1	inconclusive: 3.98 µM [inhibitor, single point]	–	–
Cc1cc(OCC(=O)O)c(C)c2c1CC[C@@H]([C@H](C)C(=O)N1CCC(O)CC1)C2	inconclusive: 10 µM [inhibitor, partial curve]	–	–
Cc1noc(C)c1Cc1c(C(=O)N2CCC(C3CCNC3)CC2)noc1C (centres undefined)	inactive	–	–
COC1CCOC2(CCN(S(=O)(=O)c3ccccc3)CC2)C1 (centres undefined)	inactive	–	–
C[C@H]1[C@@H]2[C@@H](O)C([C@H](C)C(=O)NCc3cc(F)cc(F)c3)CC[C@@]2(C)CC[C@@H]1NC(=O)c1cncnc1 (some centres undefined)	inconclusive: 0.891 µM [inhibitor, full curve, poor fit]	–	–
O=S(=O)(c1cccs1)N1CC(c2noc(C3CCCN3CC3CC3)n2)C1 (centres undefined)	active: 2.82 µM	–	–
O=C(c1ccncc1)N1CC2CCC(C1)N2CC1CCCC1	inactive	–	–
COc1ccccc1CNC(=O)c1cnc2c(-c3ccccc3)c(C)nn2c1C	inconclusive: 17.8 µM [inhibitor, single point]	–	–
COc1ccccc1N1CCN(CCCNC(=O)c2cnn(-c3ccc(C)c(C)c3)c2C2CCN(C(=O)OC(C)(C)C)CC2)CC1	active: 5.62 µM	–	–
COc1ccc(-c2noc(N3CCN(c4ccc(C)cc4)C(C)C3)n2)cc1OC (centres undefined)	active: 1.58 µM	–	–
CC(C)OCCCNC(=O)C1Cn2cccc2C(=O)N1Cc1ccccc1 (centres undefined)	inactive	–	–
COc1cc(CNC(=O)C2Cn3cccc3C(=O)N2Cc2cccnc2)cc(OC)c1 (centres undefined)	inconclusive: 11.2 µM [inhibitor, single point]	–	–
O=[S+]1([O-])NCC2(CCCN(Cc3ccc(OC(F)(F)F)cc3)C2)Nc2ccccc21 (centres undefined)	inconclusive: 1.41 µM [inhibitor, full curve, poor fit]	–	–
Cc1nccn1CCN(C)Cc1cc2n(n1)CCNC2	inconclusive: 3.98 µM [inhibitor, single point]	–	–
CCOC(=O)c1c(NC(=O)C(C)Sc2cn(CCNC(=O)c3ccccc3OC)c3ccccc23)sc2c1CCC2 (centres undefined)	inconclusive: 2.51 µM [inhibitor, single point]	–	–
O=S(=O)(NC1CCc2nnc(C3CC3)n2CC1)c1ccc2c(c1)OCCO2 (centres undefined)	inactive	–	–
COc1ccc2c(c1)CN(C1CCC(CO)CC1)CC[C@H]1COC(=O)N21 (some centres undefined)	inactive	–	–
CN1C[C@@H](NC(=O)Nc2ccc(F)cc2F)C[C@H]1c1nc(-c2ccccc2)no1	inconclusive: 15.8 µM [inhibitor, partial curve, poor fit]	–	–
CCOC(=O)c1ccc2c(c1)[C@@H]1C=CC[C@@H]1[C@H](c1cccc(OC)c1OC)N2	active: 0.447 µM	–	–
